# Reference: the supplement of paper PMC8728848
# The other results are listed elsewhere or left out.
# How the values were obtained:
# Test in all cases: glycan array binding signal (z-score within array); higher = stronger binding
# Details in all cases: glycan notation: IUPAC condensed, linker removed
# [1] = target: Fuc(a1-2)Gal(b1-4)GlcNAc(b1-3)Gal(b1-4)GlcNAc(b1-3)Gal(b1-4)GlcNAc
# Outline: (§1)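 Glycan array data were curated from 3228 arrays in the Consortium for Functional Glycomics database and kept only where the protein sequence was available. Glycan names were converted to IUPAC-condensed notation, and columns mapping to the same glycan were averaged. The binding signal is a within-array Z-score, averaged across arrays of the same protein sequence at different concentrations or buffers and across linkers. Negative Z-scores can be read as non-binding.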
# [2] = target: Fuc(a1-2)Gal(b1-4)GlcNAc(b1-3)GalNAc
# Outline: as §1
# [3] = target: Fuc(a1-2)Gal(b1-4)GlcNAc(b1-3)[Fuc(a1-2)Gal(b1-4)GlcNAc(b1-6)]GalNAc
# Outline: as §1
# [4] = target: Fuc(a1-2)Gal(b1-4)GlcNAc(b1-3)[Fuc(a1-3)[Gal(b1-4)]GlcNAc(b1-6)]Gal(b1-4)Glc
# Outline: as §1
# [5] = target: Fuc(a1-2)Gal(b1-4)GlcNAc(b1-6)GalNAc
# Outline: as §1
# [6] = target: Fuc(a1-2)Gal(b1-4)GlcNAc6S
# Outline: as §1
# [7] = target: Fuc(a1-2)Gal(b1-4)[Fuc(a1-3)]GlcNAc
# Outline: as §1
# [8] = target: Fuc(a1-2)Gal(b1-4)[Fuc(a1-3)]GlcNAc(b1-2)Man(a1-3)[Fuc(a1-2)Gal(b1-4)[Fuc(a1-3)]GlcNAc(b1-2)Man(a1-6)]Man(b1-4)GlcNAc(b1-4)[Fuc(a1-6)]GlcNAc
# Outline: as §1
# [9] = target: Fuc(a1-2)Gal(b1-4)[Fuc(a1-3)]GlcNAc(b1-2)[Fuc(a1-2)Gal(b1-4)[Fuc(a1-3)]GlcNAc(b1-4)]Man(a1-3)[Fuc(a1-2)Gal(b1-4)[Fuc(a1-3)]GlcNAc(b1-2)Man(a1-6)]Man(b1-4)GlcNAc(b1-4)GlcNAc
# Outline: as §1
# [10] = target: Fuc(a1-2)Gal(b1-4)[Fuc(a1-3)]GlcNAc(b1-3)Gal(b1-4)[Fuc(a1-3)]GlcNAc
# Outline: as §1
# [11] = target: Fuc(a1-2)Gal(b1-4)[Fuc(a1-3)]GlcNAc(b1-3)Gal(b1-4)[Fuc(a1-3)]GlcNAc(b1-3)Gal(b1-4)[Fuc(a1-3)]GlcNAc
# Outline: as §1
# [12] = target: Fuc(a1-2)Gal(b1-4)[Fuc(a1-3)]GlcNAc(b1-3)GalNAc
# Outline: as §1
# [13] = target: Fuc(a1-2)Gal(b1-4)[Fuc(a1-3)]GlcNAc(b1-3)[Neu5Ac(a2-6)Gal(b1-4)GlcNAc(b1-6)]Gal(b1-4)Glc
# Outline: as §1
# [14] = target: Fuc(a1-2)Gal3S(b1-4)GlcNAc
# Outline: as §1
# [15] = target: Fuc(a1-2)Gal6S(b1-3)GlcNAc
# Outline: as §1
# [16] = target: Fuc(a1-2)Gal6S(b1-3)GlcNAc6S
# Outline: as §1
# [17] = target: Fuc(a1-2)Gal6S(b1-4)Glc
# Outline: as §1
# [18] = target: Fuc(a1-2)Gal6S(b1-4)Glc6S
# Outline: as §1
# [19] = target: Fuc(a1-2)[Gal(a1-3)]Gal
# Outline: as §1
# [20] = target: Fuc(a1-2)[Gal(a1-3)]Gal(b1-3)GalNAc
# Outline: as §1
# [21] = target: Fuc(a1-2)[Gal(a1-3)]Gal(b1-3)GalNAc(b1-3)Gal(a1-4)Gal(b1-4)Glc
# Outline: as §1
# [22] = target: Fuc(a1-2)[Gal(a1-3)]Gal(b1-3)GlcNAc
# Outline: as §1
# [23] = target: Fuc(a1-2)[Gal(a1-3)]Gal(b1-3)GlcNAc(b1-2)Man(a1-3)[Fuc(a1-2)[Gal(a1-3)]Gal(b1-3)GlcNAc(b1-2)Man(a1-6)]Man(b1-4)GlcNAc(b1-4)GlcNAc
# Outline: as §1
# [24] = target: Fuc(a1-2)[Gal(a1-3)]Gal(b1-3)GlcNAc(b1-2)Man(a1-3)[Fuc(a1-2)[Gal(a1-3)]Gal(b1-3)GlcNAc(b1-2)Man(a1-6)]Man(b1-4)GlcNAc(b1-4)[Fuc(a1-6)]GlcNAc
# Outline: as §1
# [25] = target: Fuc(a1-2)[Gal(a1-3)]Gal(b1-3)GlcNAc(b1-3)GalNAc
# Outline: as §1
# [26] = target: Fuc(a1-2)[Gal(a1-3)]Gal(b1-3)GlcNAc(b1-6)GalNAc
# Outline: as §1
# [27] = target: Fuc(a1-2)[Gal(a1-3)]Gal(b1-4)Glc
# Outline: as §1
# [28] = target: Fuc(a1-2)[Gal(a1-3)]Gal(b1-4)GlcNAc
# Outline: as §1
# [29] = target: Fuc(a1-2)[Gal(a1-3)]Gal(b1-4)GlcNAc(b1-2)Man
# Outline: as §1
# [30] = target: Fuc(a1-2)[Gal(a1-3)]Gal(b1-4)GlcNAc(b1-2)Man(a1-3)[Fuc(a1-2)[Gal(a1-3)]Gal(b1-4)GlcNAc(b1-2)Man(a1-6)]Man(b1-4)GlcNAc(b1-4)GlcNAc
# Outline: as §1
# [31] = target: Fuc(a1-2)[Gal(a1-3)]Gal(b1-4)GlcNAc(b1-2)Man(a1-3)[Fuc(a1-2)[Gal(a1-3)]Gal(b1-4)GlcNAc(b1-2)Man(a1-6)]Man(b1-4)GlcNAc(b1-4)[Fuc(a1-6)]GlcNAc
# Outline: as §1
# [32] = target: Fuc(a1-2)[Gal(a1-3)]Gal(b1-4)GlcNAc(b1-3)GalNAc
# Outline: as §1
# [33] = target: Fuc(a1-2)[Gal(a1-3)]Gal(b1-4)GlcNAc(b1-3)[Fuc(a1-2)[Gal(a1-3)]Gal(b1-4)GlcNAc(b1-6)]GalNAc
# Outline: as §1
# [34] = target: Fuc(a1-2)[Gal(a1-3)]Gal(b1-4)GlcNAc(b1-6)GalNAc
# Outline: as §1
# [35] = target: Fuc(a1-2)[Gal(a1-3)]Gal(b1-4)[Fuc(a1-3)]Glc
# Outline: as §1
# [36] = target: Fuc(a1-2)[Gal(a1-3)]Gal(b1-4)[Fuc(a1-3)]GlcNAc
# Outline: as §1
# [37] = target: Fuc(a1-2)[Gal(a1-3)]Gal(b1-4)[Fuc(a1-3)]GlcNAc(b1-3)GalNAc
# Outline: as §1
# [38] = target: Fuc(a1-2)[Gal(a1-4)]Gal(b1-4)GlcNAc
# Outline: as §1
# [39] = target: Fuc(a1-2)[GalNAc(a1-3)]Gal
# Outline: as §1
# [40] = target: Fuc(a1-2)[GalNAc(a1-3)]Gal(b1-3)GalNAc(a1-3)[Fuc(a1-2)]Gal(b1-4)GlcNAc
# Outline: as §1
# [41] = target: Fuc(a1-2)[GalNAc(a1-3)]Gal(b1-3)GalNAc(b1-3)Gal(a1-4)Gal(b1-4)Glc
# Outline: as §1
# [42] = target: Fuc(a1-2)[GalNAc(a1-3)]Gal(b1-3)GlcNAc
# Outline: as §1
# [43] = target: Fuc(a1-2)[GalNAc(a1-3)]Gal(b1-3)GlcNAc(b1-2)Man(a1-3)[Fuc(a1-2)[GalNAc(a1-3)]Gal(b1-3)GlcNAc(b1-2)Man(a1-6)]Man(b1-4)GlcNAc(b1-4)GlcNAc
# Outline: as §1
# [44] = target: Fuc(a1-2)[GalNAc(a1-3)]Gal(b1-3)GlcNAc(b1-2)Man(a1-3)[Fuc(a1-2)[GalNAc(a1-3)]Gal(b1-3)GlcNAc(b1-2)Man(a1-6)]Man(b1-4)GlcNAc(b1-4)[Fuc(a1-6)]GlcNAc
# Outline: as §1
# [45] = target: Fuc(a1-2)[GalNAc(a1-3)]Gal(b1-3)GlcNAc(b1-3)GalNAc
# Outline: as §1
binder,measurement,setting,value
PX9937J-pdi-523-26-523 (Parabacteroides distasonis) (protein) EPVSSISDANYWKSPDLFKAFNIGLHGLLRSQSSYNIFVLGEPRSDIYGDQPFGGEATQGVERFSYNTINAEFTGISNFANFYTTLNQINLMIRRTNETDLLGEAEKNYYLGQAYGLRAYIYFHLLRSWGDVIITTEPTLGSELDISHLDKAASPASEVMDLIKKDIDASEKAFGGDYSYKQGKCYWSKPATLMLKGEVYLWSGRQMGGGTGDYTVAKTALQDLQQNGNLKLQEKFTDVFSFNNKENSEMIFALHSGKEDDFMMWRDYNWRNNMVPQREYMAGYCDETGTPFLEIPGYNLQGLMRYQVKKDHYLKSFREGDTRLKGTLKAVYKKHEDGTLEYIAPIQYKFQGTTLEGSNERSWYDDYPIYRYADALLLLAEAKALLGEDPSTEINAVRERAYGSEYFNAHKNEVAYPNDKGSFYNDNPFEAGDENVMEAILKERLREFFFEGKRWYDLRRFGKDYVLKYTTAQESRLLWPINEGALTNNPALKQTPGY,glycan array binding signal (z-score),[1],0.617
same,glycan array binding signal (z-score),[2],-0.156
same,glycan array binding signal (z-score),[3],-0.406
same,glycan array binding signal (z-score),[4],-0.107
same,glycan array binding signal (z-score),[5],0.543
same,glycan array binding signal (z-score),[6],-0.348
same,glycan array binding signal (z-score),[7],-0.324
same,glycan array binding signal (z-score),[8],0.629
same,glycan array binding signal (z-score),[9],0.253
same,glycan array binding signal (z-score),[10],-0.738
same,glycan array binding signal (z-score),[11],0.203
same,glycan array binding signal (z-score),[12],0.326
same,glycan array binding signal (z-score),[13],0.315
same,glycan array binding signal (z-score),[14],-0.342
same,glycan array binding signal (z-score),[15],-0.322
same,glycan array binding signal (z-score),[16],0.817
same,glycan array binding signal (z-score),[17],-0.238
same,glycan array binding signal (z-score),[18],-0.406
same,glycan array binding signal (z-score),[19],-0.17
same,glycan array binding signal (z-score),[20],-0.16
same,glycan array binding signal (z-score),[21],0.139
same,glycan array binding signal (z-score),[22],0.244
same,glycan array binding signal (z-score),[23],0.405
same,glycan array binding signal (z-score),[24],-0.706
same,glycan array binding signal (z-score),[25],-0.603
same,glycan array binding signal (z-score),[26],-0.417
same,glycan array binding signal (z-score),[27],0.053
same,glycan array binding signal (z-score),[28],-0.433
same,glycan array binding signal (z-score),[29],0.222
same,glycan array binding signal (z-score),[30],-0.755
same,glycan array binding signal (z-score),[31],-0.135
same,glycan array binding signal (z-score),[32],-0.655
same,glycan array binding signal (z-score),[33],-0.426
same,glycan array binding signal (z-score),[34],-0.556
same,glycan array binding signal (z-score),[35],-0.065
same,glycan array binding signal (z-score),[36],-0.016
same,glycan array binding signal (z-score),[37],0.082
same,glycan array binding signal (z-score),[38],-0.118
same,glycan array binding signal (z-score),[39],-0.296
same,glycan array binding signal (z-score),[40],-0.423
same,glycan array binding signal (z-score),[41],0.175
same,glycan array binding signal (z-score),[42],-0.541
same,glycan array binding signal (z-score),[43],-0.515
same,glycan array binding signal (z-score),[44],-0.256
same,glycan array binding signal (z-score),[45],-0.255
